In assay [1] the target is T1, Cdr1-G521R (FLC efflux of AD/CDR1-G521R cells) (Candida albicans, UniProt Q5ANA3, G521R). Conditions: for lowest MICFLC in the presence of inhibitor: FLC 5 to 640 mg/L tested.
The target of assay [2] is T2, Cdr1-M639I (FLC efflux of AD/CDR1-M639I cells) (Candida albicans, UniProt Q5ANA3, M639I). The note with it: for lowest MICFLC in the presence of inhibitor: FLC 5 to 640 mg/L tested.
Assay [3] has as its target T3, Cdr1-A713P (FLC efflux of AD/CDR1-A713P cells) (Candida albicans, UniProt Q5ANA3, A713P). Conditions: for lowest MICFLC in the presence of inhibitor: FLC 5 to 640 mg/L tested.
For assay [4], the target named is T4, Cdr1-G521R ATPase activity (Candida albicans, UniProt Q5ANA3, G521R). The note with it: for IC50: read-out: IC50 for inhibition of Cdr1 ATPase activity, from Fig. 4.
Assay [5] deals with T5, Cdr1-M639I ATPase activity (Candida albicans, UniProt Q5ANA3, M639I). The note with it: for IC50: read-out: IC50 for inhibition of Cdr1 ATPase activity, from Fig. 4.
The target of assay [6] is T6, Cdr1-A713P ATPase activity (Candida albicans, UniProt Q5ANA3, A713P). The note with it: for Estimated IC50 for substrate inhibition of the ATPase activity: > = only partial inhibition, none = no reduction at highest concentration; for IC50: read-out: IC50 for inhibition of Cdr1 ATPase activity, from Fig. 4.
The target of assay [7] is T1, Cdr1-G521R (FLC efflux of AD/CDR1-G521R cells). The assay can be described thus: cell-based.
The target in assay [8] is T2, Cdr1-M639I (FLC efflux of AD/CDR1-M639I cells). Briefly: cell-based.
The target of assay [9] is T3, Cdr1-A713P (FLC efflux of AD/CDR1-A713P cells). Briefly: cell-based.
For assay [10], the target named is T4, Cdr1-G521R ATPase activity. The assay can be described thus: biochemical.
The target in assay [11] is T5, Cdr1-M639I ATPase activity. Briefly: biochemical.
The target of assay [12] is T6, Cdr1-A713P ATPase activity. The assay can be described thus: biochemical. The note with it: for IC50: Estimated IC50 for substrate inhibition of the ATPase activity, A713P, > = only partial inhibition, none = no reduction at highest concentration.
Setting [13] is: read-out: Ki (Cdr1 ATPase activity), Dixon plot.
Where [14] appears, read: read-out: IC50 for inhibition of FLC efflux (MICFLC), live whole cells, from Fig. 3B.

“And” between values parts separate entries of the source, which are not always exact repeats. Equal entries are not always repeated. Where two headings read alike, the source gives them in different places. Bounds are passed on as bounds.

Here are results for eight compounds from article PMC8765293, “Inhibitor-Resistant Mutants Give Important Insights into Candida albicans ABC Transporter Cdr1 Substrate Specificity and Help Elucidate Efflux Pump Inhibition” (Antimicrobial Agents and Chemotherapy, 2022).

T6 sequence (Q5ANA3 whole entry A713P): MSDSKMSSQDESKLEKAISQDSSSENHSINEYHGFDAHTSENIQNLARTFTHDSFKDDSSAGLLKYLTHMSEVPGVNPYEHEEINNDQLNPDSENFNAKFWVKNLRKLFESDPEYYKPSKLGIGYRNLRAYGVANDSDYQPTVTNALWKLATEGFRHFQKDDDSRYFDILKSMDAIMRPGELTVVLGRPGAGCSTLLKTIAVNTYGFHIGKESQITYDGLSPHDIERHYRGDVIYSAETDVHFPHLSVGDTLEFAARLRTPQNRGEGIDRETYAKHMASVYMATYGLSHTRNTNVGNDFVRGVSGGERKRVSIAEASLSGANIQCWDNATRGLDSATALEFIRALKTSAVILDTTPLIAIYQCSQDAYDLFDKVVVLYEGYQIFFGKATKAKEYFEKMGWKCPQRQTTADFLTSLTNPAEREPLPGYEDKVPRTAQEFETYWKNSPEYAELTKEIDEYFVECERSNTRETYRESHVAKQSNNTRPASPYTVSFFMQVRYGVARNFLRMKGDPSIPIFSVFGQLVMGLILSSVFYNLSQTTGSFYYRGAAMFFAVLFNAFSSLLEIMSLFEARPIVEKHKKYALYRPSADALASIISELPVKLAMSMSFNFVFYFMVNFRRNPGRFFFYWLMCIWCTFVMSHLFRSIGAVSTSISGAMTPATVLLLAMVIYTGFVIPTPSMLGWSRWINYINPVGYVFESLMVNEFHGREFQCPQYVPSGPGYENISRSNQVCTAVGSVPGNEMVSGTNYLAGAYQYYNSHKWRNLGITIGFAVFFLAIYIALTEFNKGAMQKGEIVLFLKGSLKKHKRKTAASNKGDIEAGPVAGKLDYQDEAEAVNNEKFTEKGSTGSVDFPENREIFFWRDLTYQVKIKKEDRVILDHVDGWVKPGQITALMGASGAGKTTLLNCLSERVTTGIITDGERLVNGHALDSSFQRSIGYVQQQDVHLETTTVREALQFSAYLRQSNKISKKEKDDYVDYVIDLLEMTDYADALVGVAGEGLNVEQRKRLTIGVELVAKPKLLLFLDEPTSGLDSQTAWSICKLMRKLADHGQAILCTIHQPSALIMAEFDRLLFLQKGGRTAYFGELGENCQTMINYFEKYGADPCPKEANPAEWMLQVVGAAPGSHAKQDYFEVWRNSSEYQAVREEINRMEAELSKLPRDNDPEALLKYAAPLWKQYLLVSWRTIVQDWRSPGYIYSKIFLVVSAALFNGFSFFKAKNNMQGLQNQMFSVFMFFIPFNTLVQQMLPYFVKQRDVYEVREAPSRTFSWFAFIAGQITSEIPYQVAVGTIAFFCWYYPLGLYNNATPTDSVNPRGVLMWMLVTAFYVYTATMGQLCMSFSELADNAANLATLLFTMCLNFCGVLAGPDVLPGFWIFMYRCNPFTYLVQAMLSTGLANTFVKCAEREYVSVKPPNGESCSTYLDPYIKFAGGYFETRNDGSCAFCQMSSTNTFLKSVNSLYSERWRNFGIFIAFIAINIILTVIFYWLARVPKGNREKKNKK
T3 sequence (Q5ANA3 whole entry A713P): as above
T2 sequence (Q5ANA3 whole entry M639I): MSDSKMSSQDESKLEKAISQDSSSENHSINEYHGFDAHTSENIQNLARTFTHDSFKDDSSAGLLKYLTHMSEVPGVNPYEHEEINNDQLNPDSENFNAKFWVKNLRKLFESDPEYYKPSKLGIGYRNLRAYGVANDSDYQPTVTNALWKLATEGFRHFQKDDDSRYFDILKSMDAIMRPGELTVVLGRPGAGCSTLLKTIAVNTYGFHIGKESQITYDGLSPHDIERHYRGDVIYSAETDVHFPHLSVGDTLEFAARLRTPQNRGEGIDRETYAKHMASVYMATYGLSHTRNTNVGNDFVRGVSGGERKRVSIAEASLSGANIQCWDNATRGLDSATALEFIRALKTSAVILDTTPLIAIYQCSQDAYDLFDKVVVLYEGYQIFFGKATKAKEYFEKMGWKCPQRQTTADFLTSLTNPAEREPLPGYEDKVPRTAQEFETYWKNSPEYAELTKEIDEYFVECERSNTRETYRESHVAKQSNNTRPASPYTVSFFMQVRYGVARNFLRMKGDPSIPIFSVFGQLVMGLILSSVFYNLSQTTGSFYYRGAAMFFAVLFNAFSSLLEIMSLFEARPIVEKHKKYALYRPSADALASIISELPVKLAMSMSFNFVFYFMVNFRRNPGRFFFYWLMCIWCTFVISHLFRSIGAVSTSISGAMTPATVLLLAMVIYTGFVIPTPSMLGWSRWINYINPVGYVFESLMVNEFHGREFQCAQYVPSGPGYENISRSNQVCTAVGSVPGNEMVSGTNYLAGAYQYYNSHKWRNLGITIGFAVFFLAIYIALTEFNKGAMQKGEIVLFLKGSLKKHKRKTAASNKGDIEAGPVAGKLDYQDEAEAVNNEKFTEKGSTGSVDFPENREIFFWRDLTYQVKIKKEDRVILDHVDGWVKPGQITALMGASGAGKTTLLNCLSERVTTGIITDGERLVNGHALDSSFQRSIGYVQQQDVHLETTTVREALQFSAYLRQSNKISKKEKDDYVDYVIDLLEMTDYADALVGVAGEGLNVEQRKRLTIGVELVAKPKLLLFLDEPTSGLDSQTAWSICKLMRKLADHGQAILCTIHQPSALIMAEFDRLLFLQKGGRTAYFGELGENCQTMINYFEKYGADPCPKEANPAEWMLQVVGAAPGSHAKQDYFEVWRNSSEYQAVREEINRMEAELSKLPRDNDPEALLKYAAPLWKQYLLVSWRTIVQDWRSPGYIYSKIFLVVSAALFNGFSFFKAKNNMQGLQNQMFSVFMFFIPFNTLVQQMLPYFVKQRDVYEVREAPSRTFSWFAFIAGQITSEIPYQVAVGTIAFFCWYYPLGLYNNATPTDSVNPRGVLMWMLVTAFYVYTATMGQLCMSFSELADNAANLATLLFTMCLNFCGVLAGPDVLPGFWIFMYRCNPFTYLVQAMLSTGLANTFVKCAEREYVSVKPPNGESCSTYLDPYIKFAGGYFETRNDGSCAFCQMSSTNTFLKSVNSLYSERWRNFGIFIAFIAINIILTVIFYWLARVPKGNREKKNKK

As for `C=CC[C@@H]1/C=C(\C)C[C@H](C)C[C@H](OC)[C@H]2O[C@@](O)(C(=O)C(=O)N3CCCC[C@H]3C(=O)O[C@H](/C(C)=C/[C@@H]3CC[C@@H](O)[C@H](OC)C3)[C@H](C)[C@@H](O)CC1=O)[C@H](C)C[C@@H]2OC` [FK506], the “lowest inhibitor concentration necessary to achieve the lowest MICFLC” value was 80 µM in assay [1], 40 µM in assay [2] and 80 (80) μM in assay [3]. In addition, the “lowest MICFLC in the presence of inhibitor” value is 40 mg/L in assay [1], 5 mg/L in assay [2] and 80 (80) mg/L in assay [3]. Further, in assay [3], the “times more resistant than wt Cdr1 (IC50 of FLC efflux inhibition)” value was 16 fold. Besides, the “Vmax of ATPase activity in the presence of inhibitor” value amounted to 500 nmol/min/mg in assay [4] ([I] 1 μM); 256 nmol/min/mg in assay [4] ([I] 10 μM); 123 nmol/min/mg in assay [5] ([I] 10 μM); 88 nmol/min/mg in assay [6] ([I] 1 μM); 69 nmol/min/mg in assay [6] ([I] 10 μM). Moreover, the “type of inhibition of ATPase activity (Lineweaver-Burk)” value in assay [6] is given as “mixed inhibition”. In addition, the IC50 in assay [7] is 40 µM; in assay [8] it was 2.5 µM; in assay [9], 40 µM; in assay [10], 14.5 µM; in [11], 0.8 µM. The Ki in assay [10] is 12.8 ± 4.53 µM; in assay [11] it was 0.56 ± 0.07 µM; in assay [12], 11.9 ± 2.8 µM.

Turning to `OC(Cn1cncn1)(Cn1cncn1)c1ccc(F)cc1F` [FLC, fluconazole], the MICFLC stood at 160 mg/L in assay [1] (no inhibitor), 640 mg/L in assay [2] (no inhibitor) and 320 mg/L in assay [3] (no inhibitor).

On to `CCC(C)n1ncn(-c2ccc(N3CCN(c4ccc(OCC5COC(Cn6cncn6)(c6ccc(Cl)cc6Cl)O5)cc4)CC3)cc2)c1=O` (stereo not shown) [ITC, itraconazole], for which, in assay [6], the “Estimated IC50 for substrate inhibition of the ATPase activity” value is recorded as “none”. The compound also gave an IC50 in [10] above 32 µM.

On to `CC(=O)N1CCN(c2ccc(OCC3COC(Cn4ccnc4)(c4ccc(Cl)cc4Cl)O3)cc2)CC1` (stereo not shown) [KTC, ketoconazole], for which the IC50 was above 1000 µM in [10]; 100 µM and ~100 µM in assay [12].

For the compound `CC[C@@]1([C@@H]2O[C@@H]([C@H]3O[C@@](O)(CO)[C@H](C)C[C@@H]3C)C[C@@H]2C)CC[C@H]([C@]2(C)CC[C@]3(C[C@H](O)[C@@H](C)[C@@H]([C@@H](C)[C@@H](OC)[C@H](C)C(=O)O)O3)O2)O1` [MON, monensin], the “Estimated IC50 for substrate inhibition of the ATPase activity” value is listed as “none” in assay [4] (> = only partial inhibition, none = no reduction at highest concentration) and “none” in assay [6].

On to `CC/N=c1\cc2oc3cc(NCC)c(C)cc3c(-c3ccccc3C(=O)OCC)c-2cc1C` [R6G, rhodamine 6G], for which the concentration for half-maximal inhibition (IC50) in assay [10] is 32 µM; in [12], above 64 µM.

On to `[O]=[V]([O-])([O-])[O-]` [Vanadate, vanadate], for which the “Vmax of ATPase activity in the presence of inhibitor” value was determined as 333 nmol/min/mg in [4] ([I] 10 μM); 270 nmol/min/mg in assay [4] ([I] 20 μM); 149 nmol/min/mg in [5] ([I] 0.5 μM); 86 nmol/min/mg in assay [5] ([I] 2 μM); 65 nmol/min/mg in assay [6] ([I] 0.2 μM); 42 nmol/min/mg in [6] ([I] 0.5 μM). For the same compound, the IC50 in [4] was above 20 µM; in assay [5], 1.8 µM; in assay [6], 0.26 µM. Moreover, the Ki is 20.8 ± 0.76 µM in assay [4] (setting [13]), 1.93 ± 0.13 µM in assay [5] (setting [13]) and 0.07 ± 0.01 µM in [6] (setting [13]). Moreover, the “type of inhibition of ATPase activity (Lineweaver-Burk)” value in [6] is on record as “uncompetitive inhibitor”.

Turning to milbemycin α25, the “lowest MICFLC in the presence of inhibitor” value is recorded as 20 (20) mg/L in assay [1], 5 mg/L in assay [2] and 5 mg/L in assay [3]. The IC50 in assay [1] (setting [14]) was 8 µM; in [2] (setting [14]) it was 0.4 µM; in assay [3] (setting [14]) it was 0.4 µM; in [4], 28 µM; in assay [5], 30 µM; in [6], above 30 µM. Further, the “lowest inhibitor concentration necessary to achieve the lowest MICFLC” value in assay [2] and in assay [3] was 2.5 µM each time. Moreover, the “times more resistant than wt Cdr1 (IC50 of FLC efflux inhibition)” value in [2] is around 5 fold; in assay [3] it was 5 fold.

The IC50 is the concentration that inhibits the measured activity by half. As usually defined, the Ki is the dissociation constant of the complex between target and ligand, obtained from inhibition or displacement.
